The source gives no read counts; variants with many changes may rest on few reads.
B1: LINE1-mini (parent)
chain: GGCAGAGCUCAACACAGCGUGGCAAAGUGGCUGUGGCUAGACUGCC

Variants of: B1
Assay: self-cleavage, relative activity (ratio to wild type); higher = more cleavage; in vitro, sequencing; the parent is a self-cleaving ribozyme

Variant	self-cleavage
GGCAGGGCUCAUCACAGCGUUGCAAAGUGGCUGUGGCUAGACUGCC [A6G A12U G21U]	0.05
GGGAGAGCUCAACACAGCGUGUCAAAGUGGCUGUGCCUAGACUGCC [C3G G22U G36C]	0.54
GGCAGAGCUAAGCACAGCGCGGGAAAGUGGCUGUGGCUAGACUGCC [C10A A12G U20C C23G]	0
GAGAGAGCUCAACACAGCGUGGCAUAGUGGCUGUGGCUAGACUGCC [G2A C3G A25U]	0.54
GGCAAGGCUCAACACAGCGUGGCAAAGUCGCUGUGGCUAGACUCCC [G5A A6G G29C G44C]	0
GGCAGAGCUCAACAUAGCGUUGCCAAGUGGGUGUGGCUAGACUGCC [C15U G21U A24C C31G]	0.06
GGCAGAGCUCAACACGGCGUGGGAAAUUGGCUGUGGCUAGACUGCC [A16G C23G G27U]	0.52
GGAAGAGCUCAAGAGAGCGUGGCACAGUGGCUGUGGGUAGACUGCC [C3A C13G C15G A25C C37G]	0.07
GGCAGAGCUCAACAGAGCGUGGGAAAGUGGCCGCGGCUAGACUGCC [C15G C23G U32C U34C]	0.01
GGCAGAACUCAACACAGCGUGGCAAAGUGGCUGAGGCUAGGCUGCC [G7A U34A A41G]	0.03
GGAAGAGCUCAACACAGGGUGGCAAAGAGGCUGUGGCUAGACUGCC [C3A C18G U28A]	0.19
UGCAGAGCUCAACAAAGCGUGGCAAAGUGGCUGUGGCUAGACUGCU [G1U C15A C46U]	0.07
GGCAGAGCUCAACACAGCGUACCAAAGUGGCUGUGGAUCGACUGCC [G21A G22C C37A A39C]	0.03
GGCAGAGCUCAACACAGCGUGGCAUAGUUGCUGUGGCCAGACUGCC [A25U G29U U38C]	0.66
GGCAGAGCUCAACACAGAGUGGCAAAGAGGCUGUGGCUAGACAGCC [C18A U28A U43A]	0.01
GGCAGAGCUCAACACAAUGAGGCAAAGUGGCUGUUGCUAGACUGCU [G17A C18U U20A G35U C46U]	0.06
GGCAUAGCUCAACAUAGCGUGGCAAAGUGUCUGUGGCUAGGCUGCC [G5U C15U G30U A41G]	0.2
GGCAGAGCUCAACCCUGCGUGGCAAAGUGACUUUGGCUAGACUGCC [A14C A16U G30A G33U]	0.11
AGCAGAGCUCAACACAGCGUUGCAAAGUGGCUGUGGCUAGACUGUC [G1A G21U C45U]	0.57

Variant	self-cleavage
GGCAGAGGUCAACACAGCGUGGCAACGUGACAGUGGCUAGGCUGCC [C8G A26C G30A U32A A41G]	0.01
GGCAGAACUAAAUACAGCGUGGCAAAGUGGCUGUGGCUAGACUGCC [G7A C10A C13U]	0.03
UGUAGAGCUCAACACAGCGUGUGAAAGGGCCUGUGGCUAGACUGCC [G1U C3U G22U C23G U28G G30C]	0.18
GGCAGAGUUCAACAUAGCGGGGCAAAGUGUCUGUUGCUAGACUGCC [C8U C15U U20G G30U G35U]	0.02
GGCAGAGCUCAGCACAGCGUGGGAAAGUUGCUGUGGCUAGACUACC [A12G C23G G29U G44A]	0.02
GGCGGAGCUCAACACAGCGUGGCAAAGUGGCUGUGGGUCGACUGCU [A4G C37G A39C C46U]	0.04
GGCAGAGCUCAACACAGCGUGGCAACGUGUCUUUGGCUAGACUGAC [A26C G30U G33U C45A]	0.06
GGCAGAGCUCAAAACAGCGUGGCAAAGCGGGUGUGGCUAGACUGCG [C13A U28C C31G C46G]	0.05
GGCAGAGCUCAACACAGAGGGGCAAAGUGGCUGUGGCCAGACUGCC [C18A U20G U38C]	0.11
GGCGGAGAUCAACACCGUGUGGCUAAGCGGCUGUGGCUAGGAUUCC [A4G C8A A16C C18U A24U U28C A41G C42A G44U]	0.17
GGGAGAGCUCAACAAAGCGUGGCAAAGUGGCUGUGGCUAGAAUGCC [C3G C15A C42A]	0.25
GGCAGAGCUCAACACAGCGUGGCAAAGGGGCUUUGUCUACACUGCC [U28G G33U G36U G40C]	0.03
GGCAGAGCUGAACACAGCGUGGUAAAGUGGCUUUGGAUAGACUGCC [C10G C23U G33U C37A]	0
GGCAGAGGUCAACACAGCGUAGCAAGGUGGCUGUGGCUAGACAGCC [C8G G21A A26G U43A]	0.02
GCCAGAGCUCAACACAGCGUGGCAAAGUGGGUGUGGCUAUACUGCC [G2C C31G G40U]	0.05
UGCAGAGCUCAACACAGCGUGCCAAAUUGGCUGUGCCUAGACUGCC [G1U G22C G27U G36C]	0
GGCACACCUCAACAUAGCGUGGCAAAGUGGCUGUGACUAGACUGCC [G5C G7C C15U G36A]	0.07
GGCAGAGCUCAACAUAGCGUGCCAAAGUGGCAGUGGCUAGACUGCC [C15U G22C U32A]	0.02
GGCACAGCUCAGCACAGCGUGGUAAAGUAGCUGAGGCUAGACUGCC [G5C A12G C23U G29A U34A]	0.01

Variant	self-cleavage
GGCACAGCACCACACAGCGUGGCAAAGUGGCUGUGGCUAGACUGCC [G5C U9A A11C]	0.01
GGCAGAGCUCAACAUAUCGUGACAAAGGGGCUGUGGCCAGACUGCC [C15U G17U G22A U28G U38C]	0.02
GGCGGAUCUCAACACAGCGUGGCAAAGUGGCUGUGGAUAGACAGCC [A4G G7U C37A U43A]	0.35
GGCGGAGCUCAACAGAGCGUGGCAAAGUGGCUGUGGCUAUACUGCC [A4G C15G G40U]	0.05
AGCAGAGCUCAACACAGCGUGGGAAAGUGGUUGUUGCUAGACUGCC [G1A C23G C31U G35U]	0.02
GGCAGAGCUCAACACAGCCUGUCAACGUUGCUGUGGCUAGACUGCC [G19C G22U A26C G29U]	0.67
GGCAGAGAUCAAGACAGAGUGGAAAAGUGGGUGUGGCUAGACUACC [C8A C13G C18A C23A C31G G44A]	0.17
GGCAGAGCUCAACAGAGCGUGGCAAAGUGGCUGUGGCUAGAUUUCC [C15G C42U G44U]	0.04
GGCAGAGCUCAACACAGCGUGGCAAAGUCGCCGUGGCUAGACUCUC [G29C U32C G44C C45U]	0.11
AGCAGAGCUCAACACAACGUGGCAAAGUGGCUGUGGAUAGACUGCC [G1A G17A C37A]	0.16
GGCAGAGCUCAACCGAGUGUGGCAAAGUGGUUGUGGCUAGACUGCC [A14C C15G C18U C31U]	0.01
GGCAUAGCUCAACACUGCGUGGCAAGGUGGCUGUGGCUAGACUGCC [G5U A16U A26G]	0.01
GGCAGAGCUCAACACCGCGUGGCAGAGACGAUGUGGCUAGUCUGCC [A16C A25G U28A G29C C31A A41U]	0.03
GGCAGAGCUCAACACAUCGUGGCAAAGUGGGUGUGGCUUGACUGCC [G17U C31G A39U]	0.12
GGCAUAGCUCAACACAGAGUGGCAAGGUGGCUGUGGCUAUACUGCC [G5U C18A A26G G40U]	0.03
GUCAGAGCUCAACACAGCGUGUCGAAGUGGUUGUGGCUAGACUGCC [G2U G22U A24G C31U]	0.07
GGCAGAGCCCAAGACAACGUGGCAAAGUGGCCGUGGCUAGACUGCC [U9C C13G G17A U32C]	0
GGCGGAGCGCAACACAGCGUGGCAAAGUGCCUGCGGCUAGAAUGCC [A4G U9G G30C U34C C42A]	0.01

From the RNAGym collection of RNA variant scans (doi:10.7554/elife.90254)
